Some of the results follow.
What follows are sequences tested against T1, MBP-FoxP1dN (Mus musculus, UniProt P58462 326-579) (assay: PD-seq (MBP pull-down with sequencing); 20 mM Tris-HCl pH 7.5, 100 mM NaCl, 1.5 mM MgCl2, 0.4 uM protein, 0.1 uM dsDNA library, 30 min, room temperature, amylose pull-down; high values mean tight binding). Conditions: protein: recombinant; tags: His6-MBP; chain copies: 2; dsDNA, one strand shown.
T1 sequence: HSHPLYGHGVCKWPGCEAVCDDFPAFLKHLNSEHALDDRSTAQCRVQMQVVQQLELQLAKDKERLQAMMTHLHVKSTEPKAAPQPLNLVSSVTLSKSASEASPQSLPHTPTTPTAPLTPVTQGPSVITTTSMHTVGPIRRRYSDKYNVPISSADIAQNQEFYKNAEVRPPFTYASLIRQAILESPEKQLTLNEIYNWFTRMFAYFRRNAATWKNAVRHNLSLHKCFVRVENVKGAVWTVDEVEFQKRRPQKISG
How it was run: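 His6-MBP-tagged mouse FoxP3 or FoxP1 fragment lacking the N-terminus, expressed in E. coli, was mixed at 0.4 µM with 0.1 µM Klenow-filled double-stranded degenerate DNA library. Incubation was 30 min at room temperature in Tris pH 7.5 buffer with NaCl and MgCl2. Complexes were caught on amylose resin and washed three times; DNA was released with proteinase K, PCR-barcoded and Illumina-sequenced. Binding is reads-per-million enrichment, pull-down over input, with replicates pooled.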
With “GATGATTGTTCTCCCAGCTGATGAATTCATTACCTCGAGTAAACAAATTTTCCTAATCTTTCTGTTCAAGCGCCATCTAC” the binding signal was 0.933 RPM ratio (pull-down/input). In the case of “GATGATTGTTCTCCCAGCTGATGAATTGGAGACTTCGAGTAAACAAATTTTCCTAATCTTTCTGTTCAAGCGCCATCTAC”, the binding signal is reported as 0.819 RPM ratio (pull-down/input). With “GATGATTGTTCTCCCAGCTGATGAATTATGGTTTTCGAGTAAACAAATTTTCCTAATCTTTCTGTTCAAGCGCCATCTAC” the binding signal was 1.24 RPM ratio (pull-down/input). In the case of “GATGATTGTTCTCCCAGCTGATGAATTAACAATATCGAGTAAACAAATTTTCCTAATCTTTCTGTTCAAGCGCCATCTAC”, the binding signal is reported as 1.87 RPM ratio (pull-down/input). In the case of “GATGATTGTTCTCCCAGCTGATGAATTCAGTGGCTCGAGTAAACAAATTTTCCTAATCTTTCTGTTCAAGCGCCATCTAC”, the binding signal is reported as 0.835 RPM ratio (pull-down/input). In the case of “GATGATTGTTCTCCCAGCTGATGAATTCCTAGGTTCGAGTAAACAAATTTTCCTAATCTTTCTGTTCAAGCGCCATCTAC”, the binding signal is reported as 0.762 RPM ratio (pull-down/input). “GATGATTGTTCTCCCAGCTGATGAATTTACATGTTCGAGTAAACAAATTTTCCTAATCTTTCTGTTCAAGCGCCATCTAC” was tested, and the binding signal was 1.31 RPM ratio (pull-down/input). “GATGATTGTTCTCCCAGCTGATGAATTGGCCCCGTCGAGTAAACAAATTTTCCTAATCTTTCTGTTCAAGCGCCATCTAC” was tested, and the binding signal was 0.748 RPM ratio (pull-down/input). “GATGATTGTTCTCCCAGCTGATGAATTGCGTGTTTCGAGTAAACAAATTTTCCTAATCTTTCTGTTCAAGCGCCATCTAC” was tested, and the binding signal was 1.16 RPM ratio (pull-down/input). In the case of “GATGATTGTTCTCCCAGCTGATGAATTACGAAAGTCGAGTAAACAAATTTTCCTAATCTTTCTGTTCAAGCGCCATCTAC”, the binding signal is reported as 0.914 RPM ratio (pull-down/input). In the case of “GATGATTGTTCTCCCAGCTGATGAATTGGTGAATTCGAGTAAACAAATTTTCCTAATCTTTCTGTTCAAGCGCCATCTAC”, the binding signal is reported as 1.01 RPM ratio (pull-down/input). With “GATGATTGTTCTCCCAGCTGATGAATTTGTAAAGTCGAGTAAACAAATTTTCCTAATCTTTCTGTTCAAGCGCCATCTAC” the binding signal was 1.08 RPM ratio (pull-down/input). For “GATGATTGTTCTCCCAGCTGATGAATTTCTTATCTCGAGTAAACAAATTTTCCTAATCTTTCTGTTCAAGCGCCATCTAC”, the binding signal was 0.829 RPM ratio (pull-down/input). For “GATGATTGTTCTCCCAGCTGATGAATTCCCGGCTTCGAGTAAACAAATTTTCCTAATCTTTCTGTTCAAGCGCCATCTAC”, the binding signal was 0.738 RPM ratio (pull-down/input). For “GATGATTGTTCTCCCAGCTGATGAATTTTCTGCGTCGAGTAAACAAATTTTCCTAATCTTTCTGTTCAAGCGCCATCTAC”, the binding signal was 1.03 RPM ratio (pull-down/input). With “GATGATTGTTCTCCCAGCTGATGAATTGTACGTTTCGAGTAAACAAATTTTCCTAATCTTTCTGTTCAAGCGCCATCTAC” the binding signal was 1.04 RPM ratio (pull-down/input). In the case of “GATGATTGTTCTCCCAGCTGATGAATTCTAACCCTCGAGTAAACAAATTTTCCTAATCTTTCTGTTCAAGCGCCATCTAC”, the binding signal is reported as 0.828 RPM ratio (pull-down/input). “GATGATTGTTCTCCCAGCTGATGAATTAAGCTTATCGAGTAAACAAATTTTCCTAATCTTTCTGTTCAAGCGCCATCTAC” was tested, and the binding signal was 1.03 RPM ratio (pull-down/input). In the case of “GATGATTGTTCTCCCAGCTGATGAATTTAGCCGGTCGAGTAAACAAATTTTCCTAATCTTTCTGTTCAAGCGCCATCTAC”, the binding signal is reported as 0.826 RPM ratio (pull-down/input). With “GATGATTGTTCTCCCAGCTGATGAATTTCACATATCGAGTAAACAAATTTTCCTAATCTTTCTGTTCAAGCGCCATCTAC” the binding signal was 0.942 RPM ratio (pull-down/input). With “GATGATTGTTCTCCCAGCTGATGAATTAGAAGTATCGAGTAAACAAATTTTCCTAATCTTTCTGTTCAAGCGCCATCTAC” the binding signal was 1.02 RPM ratio (pull-down/input). For “GATGATTGTTCTCCCAGCTGATGAATTACGGACTTCGAGTAAACAAATTTTCCTAATCTTTCTGTTCAAGCGCCATCTAC”, the binding signal was 0.994 RPM ratio (pull-down/input). With “GATGATTGTTCTCCCAGCTGATGAATTACCTGCCTCGAGTAAACAAATTTTCCTAATCTTTCTGTTCAAGCGCCATCTAC” the binding signal was 0.965 RPM ratio (pull-down/input). With “GATGATTGTTCTCCCAGCTGATGAATTTTGTCAGTCGAGTAAACAAATTTTCCTAATCTTTCTGTTCAAGCGCCATCTAC” the binding signal was 0.995 RPM ratio (pull-down/input). “GATGATTGTTCTCCCAGCTGATGAATTGACCCATTCGAGTAAACAAATTTTCCTAATCTTTCTGTTCAAGCGCCATCTAC” was tested, and the binding signal was 0.957 RPM ratio (pull-down/input). “GATGATTGTTCTCCCAGCTGATGAATTTACAGTATCGAGTAAACAAATTTTCCTAATCTTTCTGTTCAAGCGCCATCTAC” was tested, and the binding signal was 1.2 RPM ratio (pull-down/input). With “GATGATTGTTCTCCCAGCTGATGAATTCTCTCTCTCGAGTAAACAAATTTTCCTAATCTTTCTGTTCAAGCGCCATCTAC” the binding signal was 0.81 RPM ratio (pull-down/input). “GATGATTGTTCTCCCAGCTGATGAATTCCTTAAGTCGAGTAAACAAATTTTCCTAATCTTTCTGTTCAAGCGCCATCTAC” was tested, and the binding signal was 0.845 RPM ratio (pull-down/input). “GATGATTGTTCTCCCAGCTGATGAATTTGTGAAGTCGAGTAAACAAATTTTCCTAATCTTTCTGTTCAAGCGCCATCTAC” was tested, and the binding signal was 1.09 RPM ratio (pull-down/input). In the case of “GATGATTGTTCTCCCAGCTGATGAATTTTGCGTTTCGAGTAAACAAATTTTCCTAATCTTTCTGTTCAAGCGCCATCTAC”, the binding signal is reported as 1.09 RPM ratio (pull-down/input). In the case of “GATGATTGTTCTCCCAGCTGATGAATTGTAAGAATCGAGTAAACAAATTTTCCTAATCTTTCTGTTCAAGCGCCATCTAC”, the binding signal is reported as 1.05 RPM ratio (pull-down/input). For “GATGATTGTTCTCCCAGCTGATGAATTTCTGGTGTCGAGTAAACAAATTTTCCTAATCTTTCTGTTCAAGCGCCATCTAC”, the binding signal was 0.842 RPM ratio (pull-down/input). “GATGATTGTTCTCCCAGCTGATGAATTGAGACCATCGAGTAAACAAATTTTCCTAATCTTTCTGTTCAAGCGCCATCTAC” was tested, and the binding signal was 0.888 RPM ratio (pull-down/input). In the case of “GATGATTGTTCTCCCAGCTGATGAATTCTAGCTTTCGAGTAAACAAATTTTCCTAATCTTTCTGTTCAAGCGCCATCTAC”, the binding signal is reported as 1.03 RPM ratio (pull-down/input). For “GATGATTGTTCTCCCAGCTGATGAATTTAATATTTCGAGTAAACAAATTTTCCTAATCTTTCTGTTCAAGCGCCATCTAC”, the binding signal was 1.01 RPM ratio (pull-down/input). For “GATGATTGTTCTCCCAGCTGATGAATTGCCCCTGTCGAGTAAACAAATTTTCCTAATCTTTCTGTTCAAGCGCCATCTAC”, the binding signal was 0.834 RPM ratio (pull-down/input). In the case of “GATGATTGTTCTCCCAGCTGATGAATTACCATGCTCGAGTAAACAAATTTTCCTAATCTTTCTGTTCAAGCGCCATCTAC”, the binding signal is reported as 1.04 RPM ratio (pull-down/input). For “GATGATTGTTCTCCCAGCTGATGAATTCGATTATTCGAGTAAACAAATTTTCCTAATCTTTCTGTTCAAGCGCCATCTAC”, the binding signal was 0.908 RPM ratio (pull-down/input). With “GATGATTGTTCTCCCAGCTGATGAATTATCTCAATCGAGTAAACAAATTTTCCTAATCTTTCTGTTCAAGCGCCATCTAC” the binding signal was 1.03 RPM ratio (pull-down/input). With “GATGATTGTTCTCCCAGCTGATGAATTAAAGAACTCGAGTAAACAAATTTTCCTAATCTTTCTGTTCAAGCGCCATCTAC” the binding signal was 0.848 RPM ratio (pull-down/input).

— paper PMC12820563, “FoxP3 forms a head-to-head dimer in vivo and stabilizes its multimerization on adjacent microsatellites”
